Results reported in PubChem BioAssay AID488969 (Vanderbilt High Throughput Screening Facility, 2010).
Whole data set: some 110,000 compounds, median “z-score” near -0.1, cut for the highest 2% near 2. The list shows a part of the results. Activity calls are given as the source filed them.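 Rule for the calls: active = z-score in the third read window above 3 or below -3; inactive = the rest.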

These compounds were tested against Metabotropic glutamate receptor 8 (Rattus norvegicus) (UniProt P70579) (assay: mGluR8 Gi/Go-coupled signaling modulation – cell-based, rat, thallium flux, HTS, primary screen (AID 488969)). Details: HEK293 rat mGluR8, GIRK (G protein-gated inwardly rectifying potassium channel) thallium flux, FluoZin2; at 10 µM; stronger effect = higher value; submaximal glutamate (EC20) added with thallium.
Sequence of UniProt P70579 (P70579 whole entry, looked up): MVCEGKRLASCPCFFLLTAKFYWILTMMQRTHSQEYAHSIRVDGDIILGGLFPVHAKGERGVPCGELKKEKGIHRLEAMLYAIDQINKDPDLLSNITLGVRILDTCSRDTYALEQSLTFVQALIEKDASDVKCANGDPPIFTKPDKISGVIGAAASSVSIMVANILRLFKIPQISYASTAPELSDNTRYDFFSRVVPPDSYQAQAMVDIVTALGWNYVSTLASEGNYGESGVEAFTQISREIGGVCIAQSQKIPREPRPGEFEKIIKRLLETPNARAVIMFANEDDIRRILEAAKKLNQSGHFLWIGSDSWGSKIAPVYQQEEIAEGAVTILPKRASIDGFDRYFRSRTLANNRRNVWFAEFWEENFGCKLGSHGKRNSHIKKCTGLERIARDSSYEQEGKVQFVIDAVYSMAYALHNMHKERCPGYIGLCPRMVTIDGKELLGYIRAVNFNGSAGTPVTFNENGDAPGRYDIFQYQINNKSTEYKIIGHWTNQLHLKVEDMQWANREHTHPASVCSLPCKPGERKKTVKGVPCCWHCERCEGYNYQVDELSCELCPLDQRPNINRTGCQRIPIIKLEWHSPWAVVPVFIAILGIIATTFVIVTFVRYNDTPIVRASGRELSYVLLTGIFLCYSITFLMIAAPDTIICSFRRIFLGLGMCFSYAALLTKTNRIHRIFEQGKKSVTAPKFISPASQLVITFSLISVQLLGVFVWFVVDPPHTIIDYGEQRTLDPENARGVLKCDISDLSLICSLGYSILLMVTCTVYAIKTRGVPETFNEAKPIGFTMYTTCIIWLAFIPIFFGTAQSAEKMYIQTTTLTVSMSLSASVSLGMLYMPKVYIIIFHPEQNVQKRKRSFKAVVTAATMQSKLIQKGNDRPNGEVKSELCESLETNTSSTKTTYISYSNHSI

Going from `CCn1cc(/C=N\NC(=O)c2csc3ccccc23)c(C)n1` to `Cn1c(SCC(=O)N/N=C/c2ccc([N+](=O)[O-])s2)nnc1-c1ccccc1`, the z-score falls from -0.112 to -0.166.

Going from `C#CCSC1=C(C#N)C(c2cccs2)C(C(=O)OCC)=C(C)N1` (stereo unspecified) to `CCOc1ncccc1C(=O)OCc1ccc(C#N)cc1`, the z-score falls from -0.176 to -0.199.

Compared with `COc1ccc(-c2nc3ccccn3c2C=O)cc1`, `COc1ccc(-c2cnnc(N/N=C/c3ccc(O)c(O)c3)n2)cc1` is lower in z-score: -0.0294 for the first, -0.31 for the second.

First: Cc1c(N=C2SCC(=O)N2/N=C/c2ccccc2)c(=O)n(-c2ccccc2)n1C
Second: Cn1c(=O)n(CCc2ccccc2)c(=O)c2c1ncn2Cc1ccccc1
The z-score of the first is higher: -0.023 for the first, -0.501 for the second.

Compared with `CC1(C)CC(=O)C(C=NCCN2CCN(C(=O)CC3CCCC3)CC2)=C(O)C1`, `CC1(C)CC(=O)C(C=NCCO)=C(O)C1` is lower in z-score: 0.544 for the first, -0.374 for the second.

First: CCc1ccc(NC(=S)NC2CC3CCC(C2)N3Cc2ccco2)cc1 (stereo unspecified)
Second: COC(=O)c1ccc(NC(=O)C2CCCCC2C(=O)O)cc1 (stereo unspecified)
The z-score of the first is higher: 0.699 for the first, -0.0344 for the second.

First: Cc1ccc(N2C(=O)c3ccccc3NC2C(C)Cc2ccc3c(c2)OCO3)cc1 (stereo unspecified)
Second: CC(C)C(C(=O)Nc1ccc2c(c1)OCO2)N1C(=O)c2ccccc2C1=O (stereo unspecified)
The z-score of the first is higher: -0.0122 for the first, -0.367 for the second.

First: Cc1cc([N+](=O)[O-])nn1CC(=O)Nc1nccs1
Second: Cc1cccc2sc(NC(=O)CN3C(=O)c4ccccc4C3=O)nc12
The z-score of the first is higher: 0.292 for the first, -0.16 for the second.

Compared with `Cc1nnn(C23CC4CC(CC(CC(=O)Nc5ccc(C)c(C)c5)(C4)C2)C3)n1`, `Cc1c(CCOC(=O)C23CC4CC(CC(C4)C2)C3)sc[n+]1Cc1ccccc1` is lower in z-score: -0.252 for the first, -0.337 for the second.

First: O=C(O)[C@@H]1CCCN1C(=O)c1ccco1
Second: O=C(O)C1CCCCC1C(=O)Nc1ccc(F)c(F)c1 (stereo unspecified)
The z-score of the first is higher: 0.101 for the first, -0.293 for the second.

Compared with `O=C(NC(=S)Nc1ccccc1O)c1ccc(-c2ccc(Cl)cc2)o1`, `O=C1NC(c2ccc(-c3ccccc3[N+](=O)[O-])o2)C(C(=O)c2ccc(Cl)cc2)C(O)(C(F)(F)F)N1` (stereo unspecified) is higher in z-score: -0.262 for the first, 0.276 for the second.

Compared with `Cc1ccc(NC(=O)COC(=O)CCc2c[nH]c(=O)[nH]2)cc1`, `COC(=O)CC1C(=O)NCCN1C(=O)Nc1ccc(Cl)cc1` (stereo unspecified) is lower in z-score: 0.58 for the first, -0.00409 for the second.

Compared with `NC(=S)N=Nc1c(O)n(Cc2ccc(F)cc2)c2ccccc12`, `CCOC(=O)C(NCc1ccc(F)cc1)(NC(=O)c1ccccc1)C(F)(F)F` (stereo unspecified) is lower in z-score: 1.76 for the first, -0.631 for the second.

First: C=CCn1c(SCC(=O)OCC)nc2cc(C(=O)NCc3ccco3)ccc2c1=O
Second: Cc1ccc(Cc2c(C)nc3nc(SCC(=O)NCc4ccco4)nn3c2C)cc1
The z-score of the first is lower: -0.24 for the first, 0.432 for the second.

First: C/C(=N\NC(=O)Cn1c(-c2ccccn2)nc2ccccc21)c1ccccc1
Second: CC(C)OC(=O)c1ccc(NC(=O)Cn2c(-c3nonc3N)nc3ccccc32)cc1
The z-score of the first is higher: 0.577 for the first, -0.0806 for the second.

Going from `O=C(CSc1ccc(-c2nc3ccccc3[nH]2)cn1)Nc1ccc(S(=O)(=O)N2CCCC2)cc1` to `O=[N+]([O-])c1cc(S(=O)(=O)C(F)(F)F)ccc1Sc1nc2ccccc2[nH]1`, the z-score falls from -0.35 to -0.379.

Going from `COc1cc(/C=N/NC(=O)C(=O)N2CCCC2)ccc1O` to `CCOc1cc(C(C#N)N2CCCCC2)ccc1OC` (stereo unspecified), the z-score rises from -0.205 to -0.102.

First: CCOC(=O)c1nnn(-c2nonc2N)c1-c1ccc(C)cc1
Second: CCOc1ccc(-c2nnn(CC(=O)NCCc3c[nH]c4ccccc34)n2)cc1
The z-score of the first is higher: 0.821 for the first, -0.385 for the second.

Compared with `Cc1ccc(N(CC(O)CN2CCCC2)S(=O)(=O)c2ccccc2)cc1` (stereo unspecified), `CCC(OCC(O)CN1CCN(CCN2C(=O)c3cccc4cccc(c34)C2=O)CC1)c1ccccc1` (stereo unspecified) is higher in z-score: -0.209 for the first, 0.239 for the second.

Compared with `Cc1cc(=O)oc(C)c1C(=O)OCC(=O)c1ccc(Br)cc1`, `CCSc1c(C(=O)NC)ccc2c1C(=O)c1ccccc1C2=O` is higher in z-score: -0.578 for the first, -0.414 for the second.

Compared with `COc1cccc(-c2cc(C(=O)O)no2)c1`, `CCCNC(=O)CS(=O)(=O)Cc1nc(-c2cccc(OC)c2)oc1C` is higher in z-score: -0.677 for the first, 0.16 for the second.

First: COc1ccc(CCNS(=O)(=O)c2cccs2)cc1
Second: COc1ccc(CNC(=O)c2sc(=S)n(-c3ccc(OC)cc3)c2N)cc1
The z-score of the first is higher: 0.403 for the first, -0.162 for the second.

Compared with `CCn1c(COc2ccccc2)nnc1SCC(=O)C(C)(C)C`, `CC(C)(C)NC(=O)CSc1nc(O)cc(=O)n1-c1ccccc1F` is higher in z-score: -0.408 for the first, -0.203 for the second.

Going from `CC(=O)c1ccc2c(c1)C1C=CCC1C(c1ccncc1)N2` (stereo unspecified) to `CCc1ccccc1NC(=O)C1CC(c2ccc(F)cc2)=NO1` (stereo unspecified), the z-score falls from -0.00724 to -0.155.

Compared with `O=c1c2ccccc2nc2c3ccccc3c(NCc3ccco3)nn12`, `COc1ccc(/C=C2/SC(=O)N(CC(O)Cn3c4ccccc4c4ccccc43)C2=O)cc1` (stereo unspecified) is lower in z-score: 0.342 for the first, -0.167 for the second.

Compared with `O=C(/C=C/c1cccc([N+](=O)[O-])c1)NCCSCc1ccccc1Cl`, `Cc1cccc(OCCCC(=O)NCCc2ccccc2)c1` is lower in z-score: -0.15 for the first, -0.23 for the second.

First: CCOc1cc(C2C(C#N)=C(N)OC(C)=C2C(C)=O)c(Br)c(Br)c1OC(C)C (stereo unspecified)
Second: CCC(=O)N(C)CCc1cc2c(c(OC)c1/C=N/NC(=O)c1ccccc1O)OCO2
The z-score of the first is higher: 0.215 for the first, 0.0186 for the second.

Going from `O=C(c1ccc(CNc2c(N3CCCC3)c(=O)c2=O)cc1)N1CCc2ccccc2C1` to `CCC(=O)N1CCN(c2ccc(NC(=O)c3ccc(N4CCCC4)c([N+](=O)[O-])c3)cc2)CC1`, the z-score falls from 0.0853 to -0.186.

Going from `CN(C)S(=O)(=O)c1cccc(NC(=O)COC(=O)C2(c3ccccc3F)CCCC2)c1` to `CN(C)c1ccc(N/C(=N\S(=O)(=O)c2cccs2)c2ccccc2)cc1`, the z-score rises from -0.26 to -0.167.

First: COc1cc(CNC2CCCC2)cc(Cl)c1OCc1ccccc1Cl
Second: COc1ccc2ccccc2c1C1CC(=O)N2CN(C3CCCCC3)CSC2=C1C#N (stereo unspecified)
The z-score of the first is lower: 0.0424 for the first, 0.16 for the second.

Going from `CCN1c2ccccc2N(C)C1(C)c1ccccc1` (stereo unspecified) to `Cc1ccccc1Cn1c(=N)n(CC(=O)c2ccc([N+](=O)[O-])cc2)c2ccccc21`, the z-score rises from 0.0532 to 0.33.

First: O=c1[nH][nH]c(C(F)(F)F)c1C=NCc1cccc(Cl)c1
Second: O=C1CC(c2ccco2)CC(O)=C1C=Nc1cc(Cl)ccc1O (stereo unspecified)
The z-score of the first is lower: -0.222 for the first, 0.193 for the second.

Going from `O=C1CCCCC(=O)c2ccccc2N1` to `N#Cc1c(SCC(=O)O)nc(-c2ccccc2)c2c1CCCC2`, the z-score falls from 2.21 to -0.582.

Compared with `COc1ccc(OC)c(NC(=S)NN2CCN(C)CC2)c1`, `COc1ccc(S(=O)(=O)N2CCOCC2)cc1C(C)C` is higher in z-score: -0.267 for the first, -0.0686 for the second.

First: CC1(C)NC(=O)N(CCCCSc2ccc(Cl)cc2)C1=O
Second: O=C(NC1CCCCC1)Sc1ccc(Cl)cc1
The z-score of the first is higher: 0.189 for the first, -0.371 for the second.

Going from `Cc1ccc(NS(=O)(=O)c2cc(C(=O)NCCSc3ccc(C)cc3)ccc2C)cc1` to `Cc1ccc2cccc(S(=O)(=O)Nc3ccc4c(c3)OCO4)c2n1`, the z-score rises from 0.000328 to 0.322.

Going from `CN1CCN(C(=O)/C=C/c2ccc3c(c2)OCO3)CC1` to `COc1ccc(NC(=O)N2CCN(c3cccc(C(F)(F)F)c3)CC2)cc1`, the z-score rises from -0.453 to 0.558.

Compared with `Cc1cc(C)n(CC(O)Cn2c3ccc(Cl)cc3c3cc(Cl)ccc32)c(=O)n1` (stereo unspecified), `Cc1ccc2c(c1)c1c(n2CC(O)Cn2nc(C)c(Br)c2C)CCCC1` (stereo unspecified) is higher in z-score: -0.0985 for the first, 0.191 for the second.

First: CC1CN(Cc2cc(=O)[nH]c(C(C)C)n2)CC(C)O1 (stereo unspecified)
Second: CC1CN(C(=O)c2cc(S(=O)(=O)N3CCCC3)c(Cl)cc2Cl)CC(C)O1 (stereo unspecified)
The z-score of the first is lower: -0.125 for the first, 0.0417 for the second.

First: O=C(CN(C(=O)Cn1nnc(-c2cccs2)n1)c1ccc2c(c1)OCCO2)NCC1CCCO1 (stereo unspecified)
Second: O=C(c1ccco1)N(CCCN1CCOCC1)c1nc(-c2ccc(F)cc2)cs1
The z-score of the first is higher: 0.138 for the first, -0.586 for the second.

Compared with `Cc1ccc(-c2cc(C(F)(F)F)nc(SCC(=O)c3cccc([N+](=O)[O-])c3)n2)cc1`, `Cc1ccc(NC(=O)CSc2nc3ccccc3c3nc(CCn4cncc4C)nn23)c(C)c1` is higher in z-score: -0.37 for the first, 0.57 for the second.

Compared with `COc1ccc(C(=O)CCN2CCCCCC2)cc1`, `COc1cccc(OCCCCCN2CCOCC2)c1` is lower in z-score: -0.333 for the first, -0.337 for the second.

First: NC(=O)c1ccc(-n2nnnc2SCC(=O)Nc2ccc(N3CCOCC3)c(Cl)c2)cc1
Second: COc1cccc(OC)c1C(=O)N1CCN(c2ccccn2)CC1
The z-score of the first is higher: 0.232 for the first, 0.0241 for the second.

First: N#CCc1ccc(C(=O)c2ccccc2)s1
Second: C=CCc1ccccc1OCC(=O)OCCNC(=O)c1cccnc1
The z-score of the first is higher: -0.167 for the first, -0.995 for the second.

Going from `CCN(Cc1ccccc1)S(=O)(=O)c1ccc(S(=O)(=O)N(Cc2cccc(OC)c2)CC2CCCO2)cc1` (stereo unspecified) to `COc1ccc(CCN(C)Cc2ccc(OCc3ccccc3)c(OC)c2)cc1OC`, the z-score falls from -0.202 to -0.513.

Compared with `CO/N=C/NC(=O)C1=NOC(CNc2ncc(C(F)(F)F)cc2Cl)C1` (stereo unspecified), `CCCC(=O)Nc1cnc(NC(=O)c2cccc(F)c2)cc1C` is lower in z-score: -0.0269 for the first, -0.239 for the second.

Compared with `Cc1[nH]c2ccc(F)cc2c(=O)c1SC(F)(F)C(F)C(F)(F)F` (stereo unspecified), `COc1ccc(CN(C(=O)CSc2nnc(-c3c[nH]c4ccccc34)o2)c2ccc(F)cc2)cc1OC` is higher in z-score: 0.655 for the first, 0.675 for the second.

Compared with `NS(=O)(=O)c1ccc(NN=C2CCCCC2)c([N+](=O)[O-])c1`, `CN(C1CCCCC1)S(=O)(=O)c1ccc(NC(=O)C2CCCCC2)cc1` is lower in z-score: -0.071 for the first, -0.089 for the second.

Compared with `COc1cc(C(c2sc3nc(C)nn3c2O)N2CC(C)CC(C)C2)cc(OC)c1OC` (stereo unspecified), `COc1cc(NC(=O)COC(=O)CC(C)(C)C)c(C)cc1[N+](=O)[O-]` is higher in z-score: -0.308 for the first, 0.482 for the second.

First: COc1ccc(NC(=S)NC(NC(=O)c2ccccc2Cl)C(Cl)(Cl)Cl)c([N+](=O)[O-])c1 (stereo unspecified)
Second: COc1ccc(N2C(=O)[C@@H]3[C@H](C2=O)[C@H]2c4ccccc4C=CN2[C@@H]3C(=O)Nc2ccccc2)cc1
The z-score of the first is lower: -0.469 for the first, -0.0536 for the second.

Going from `O=C(C1CC1)N(CCN(C(=O)C1CC1)c1ccccc1)c1ccccc1` to `CCc1cccc(CC)c1N(COC)C(=O)Cn1nnc2ccccc21`, the z-score falls from -0.25 to -0.43.

First: CCC(=O)Nn1c(C)nnc1C
Second: O=C(CSCc1c(Cl)cccc1Cl)NCc1cccnc1
The z-score of the first is higher: 0.492 for the first, -0.0476 for the second.

With `O=c1[nH]cnc2c1nc(SCc1ccccc1)n2C1OC(CO)C(O)C1O` (stereo unspecified) the z-score was 1.45.

`CCOC(=O)N1CCC(N2C(=O)c3ccccc3C2Nc2ccc3c(C)cc(=O)oc3c2)CC1` (stereo unspecified) was tested, and the z-score was active: 4.01.
